Laboratory results published in PubChem BioAssay AID463173 (ICCB-Longwood Screening Facility, Harvard Medical School, 2010).
Out of some 52,000 compounds screened, about 4,300 (8.3%) were called active. No stated cut-off is given here; in the data, active means survival mostly below about 52% (no sharp cut-off); inactive means mostly above about 56%. The list shows a part of the results.

Tested on: DeltatarO mutant
Assay: growth inhibition of S. aureus wild type versus tarO mutant, primary screen, teichoic acid synthesis inhibitors, RN4220, OD600 (AID 463173)
Conditions: OD600, 18 h, stronger effect = lower value, screened at 18.75 µg/mL (by protocol)

SMILES	survival
CC1CCN(c2nc3ccc(C(=O)NCc4ccccc4Cl)cc3s2)CC1	inactive: 75%
O=C(NC1CCCC1)c1ccc2c(c1)N(Cc1ccccc1)C(=O)c1ccccc1S2	inactive: 105%
COc1cccc(CNC(=O)Cc2c(C)c3ccc(OC)c(C)c3oc2=O)c1	inactive: 54%
COc1ccc(C2=C(N3CCN(c4cccc(C)c4)C(C)C3)c3ccccc3C2=O)cc1 (configuration not stated)	inactive: 51%
Cc1ccc(F)cc1NC(=O)Cn1c(C)cc(C)c(C#N)c1=O	inactive: 126%
COCCCn1c(SCC(=O)N2CC(=O)Nc3ccccc32)nnc1-c1ccoc1C	inactive: 79%
CCOc1ccc(C2c3[nH]c4ccccc4c3CCN2C(=O)CSCc2ccc(F)cc2)cc1 (configuration not stated)	inactive: 97%
Cc1cccc(CNC(=O)c2ccc3nc(Cc4ccccc4)oc3c2)c1	inactive: 124%
O=C(NCCc1ccccc1)c1nn(-c2ccc(F)cc2)nc1CO	inactive: 108%
COc1ccc(NC(=O)CSc2nnc(NC(=O)NC3CCCCC3)s2)cc1OC	inactive: 70%
Cc1cc(S(=O)(=O)NCC(c2ccco2)S(=O)(=O)c2cccs2)ccc1F (configuration not stated)	inactive: 101%
Cc1ccc(CCNC(=O)c2c3c(nc4ccccc24)C(=O)N(C2CCCCC2)C3)cc1	inactive: 98%
Cn1c(=O)oc2cc(S(=O)(=O)N3CCCC(C(=O)NCCc4ccccc4)C3)ccc21 (configuration not stated)	inactive: 103%
CC(=O)c1ccc(NS(=O)(=O)c2ccc3[nH]c4c(c3c2)CCCC4)cc1	inactive: 83%
Cc1ccccc1C(=O)Nc1c(C)nc2ccccn2c1=O	active: 37%
Cc1ccc(CNC(=O)c2c[nH]n3c(=O)c(Cc4ccc(Cl)cc4)c(C)nc23)cc1	active: -12%
CC1(C)NC(=O)N(CC(O)COc2ccc(N3C(=O)c4ccccc4C3=O)cc2)C1=O (configuration not stated)	inactive: 105%
CCc1ccc(S(=O)(=O)c2cn(Cc3ccccc3F)c3cc(OC)c(OC)cc3c2=O)cc1	inactive: 70%
Cc1ccc2[nH]c(=O)c(CNCCCO)cc2c1	inactive: 80%
Nc1ccc(N=C2C(=O)Nc3ccccc32)cc1	inactive: 103%
COc1ccc(CNC(=O)Nc2ccc3c(c2)N(C)C(=O)c2ccccc2S3)cc1OC	inactive: 61%
COc1cc(OC)c(NC(=O)CN2CCCN(Cc3ccccc3C)S2(=O)=O)cc1Cl	inactive: 73%
CCOc1ccc(CCNC(=O)CCCc2nnc3n(CC)c(=O)c4sccc4n23)cc1OCC	inactive: 92%

SMILES	survival
Cc1cccc(NC(=O)COc2ccc(-c3nn(C)c(=O)c4ccccc34)cc2)c1	inactive: 50%
Cc1ccc(NC(=O)Cn2c(=O)n(Cc3nc(-c4ccccc4)no3)c(=O)c3ccccc32)cc1C	inactive: 76%
COC(=O)c1ccccc1NC(=O)CSc1nc(=O)cc(N)n1-c1ccccc1	active: 38%
Cc1coc2cc3oc(=O)c(CC(=O)NCc4cccc(Cl)c4)c(C)c3cc12	inactive: 88%
Cc1ccc(CNC(=O)c2c(-c3ccccc3Cl)noc2C)o1	inactive: 91%
Cc1ccc(CNC(=O)c2ccc(Cn3c(=O)c4ccccc4n(CC(=O)Nc4ccc(C)cc4)c3=O)cc2)cc1	inactive: 88%
Cc1cccc(NC(=O)Cn2cc(C(=O)c3ccco3)c3ccccc32)c1	inactive: 88%
Cc1ccccc1OCCn1c(-c2ccc(Cl)cc2)nc2ccccc2c1=O	inactive: 57%
O=C1CN(Cc2ccccc2)C(=NCc2ccco2)S1	inactive: 116%
CC1CCN(CC(=O)N2CCN(c3ccccc3)CC2)CC1	inactive: 101%
O=C(NCCc1ccccc1)c1ccc(Cl)nc1	inactive: 100%
CC(C)C1Oc2ccccc2N(CC(=O)N(C)C2CCCCC2)C1=O (configuration not stated)	inactive: 95%
COc1cc(OC)c(NC(=O)CCc2c(C)nc3ncnn3c2C)cc1Cl	inactive: 97%
CCn1c(CN2CCC(C)CC2)nc2cc(NC(=O)COc3ccc(Cl)c(C)c3)ccc21	inactive: 72%
CN(Cc1ccccc1)c1ccc(-c2nc(-c3ccccn3)no2)cc1[N+](=O)[O-]	active: 34%
COc1cccc(N2CCN(C(=O)c3cc4cc5cc(C)ccc5nc4s3)CC2)c1	inactive: 105%
CCc1ccc(-n2c(SCc3ccccc3Cl)nc3[nH]ncc3c2=O)cc1	inactive: 102%
CCC(=O)N1c2ccccc2CC1C(=O)NCc1ccccc1Cl (configuration not stated)	inactive: 69%
Cc1cccc(NC(=O)CCn2cnnn2)c1C	inactive: 93%
CCOC(=O)c1c(C)[nH]c(C)c1S(=O)(=O)N1CCCC(C(=O)NCc2ccc(Cl)cc2)C1 (configuration not stated)	inactive: 80%
CCOCCCNC(=O)CN1C(=O)COc2ccc(S(=O)(=O)N3CCCC3)cc21	inactive: 87%
COc1ccccc1Nc1cc(C(=O)NC2CCC(C)CC2)c2ccccc2n1 (configuration not stated)	inactive: 74%
O=C(Nc1ccc2oc(-c3ccncc3)nc2c1)c1ccccc1Cl	inactive: 68%

SMILES	survival
Cc1oc(-c2ccc(Cl)cc2)nc1CSc1nc2ncccc2[nH]1	inactive: 94%
O=C(OCc1cc(=O)n2nc(C3CCCCC3)sc2n1)c1ccc(F)cc1	inactive: 79%
COC(=O)c1c(NC(=O)/C(C#N)=C/c2ccccc2)sc2c1CCC2	inactive: 55%
CCOc1ccc(NC(=O)c2sc3nc4c(c(-c5ccc(OC)cc5)c3c2N)C(=O)CC(C)(C)C4)cc1	inactive: 56%
CCOc1ccc(-n2cc(-c3ccccc3)c3c(N4CCN(c5ccccc5OC)CC4)ncnc32)cc1	inactive: 75%
CCCCN(CC)C(=O)CSc1c2c(nc3ccc(Cl)cc13)CCCC2	active: -2%
O=C(Nc1cccc(Cl)c1)c1ccc2c(c1)CCN2S(=O)(=O)c1ccccc1	active: 41%
COc1ccc(-c2noc(-c3cccnc3N3CCN(c4ccc(OC)cc4)CC3)n2)cc1	inactive: 51%
O=C(COCc1cc(-c2cccs2)on1)N1CCN(c2cccc(Cl)c2)CC1	active: 37%
Fc1cccc(-c2nnn3c2nc(NCCc2ccccc2)c2ccccc23)c1	inactive: 115%
O=C(CCn1c(=O)c2cccn2c2cccnc21)N1CCN(c2ccccc2F)CC1	inactive: 75%
COc1cc(C)cc2oc(=O)c(CC(=O)NCCc3ccc(Cl)cc3)c(C)c12	inactive: 100%
COc1ccc(-n2c(C)nc(=O)c(-c3ccccc3)c2C)cc1	inactive: 81%
CCN(C(=O)Nc1cn(CC(C)C)c(=O)c2ccccc12)c1cc(C)ccc1C	inactive: 66%
Cc1ccc(CNC(=O)CCn2cnc3ccccc3c2=O)cc1	inactive: 73%
Cc1ccc2nc(Nc3ccc(C)c(F)c3)c3nncn3c2c1	active: 38%
Cc1c(Cl)cccc1NC(=O)C1CCN(c2ncnc3c2nc2n3CCCCC2)CC1	inactive: 109%
N#C/C(=C\c1cn(Cc2ccccc2C#N)c2ccccc12)C(=O)NCc1cccs1	inactive: 89%
COc1ccccc1CN1C(=O)CN(C2CCCCCC2)C(=O)C1c1ccc(F)cc1 (configuration not stated)	inactive: 78%
Cc1ccnc(NC(=O)CCCOc2ccc(Cl)cc2Cl)c1	inactive: 81%
CCn1nc(C)c(CCN(C)C(=O)Nc2cc(OC)c(OC)c(OC)c2)c1C	inactive: 89%
Cc1ccc(N2CC(NC(=O)c3ccc(S(=O)(=O)N4CCOCC4)cc3)CC2=O)cc1 (configuration not stated)	inactive: 60%
O=c1c2ccccc2nc2c3ccccc3c(N3CCCCCC3)nn12	inactive: 103%

SMILES	survival
COc1ccc(C)cc1NC(=O)C1CCN(S(=O)(=O)c2ccc(OC)c(OC)c2)CC1	inactive: 92%
C=Cn1c(C(=O)O)ccc1-c1ccc(OC)cc1	inactive: 110%
Cc1ccc(CCNS(=O)(=O)c2ccc3c(c2)CC(C)N3C(=O)C2CCC2)cc1 (configuration not stated)	inactive: 72%
Cc1oc(-c2ccccc2Cl)nc1Cn1c(SCc2cccc(F)c2)nc2cccnc21	inactive: 75%
Cc1nc(-c2ccccc2)sc1-c1ccc(SCC(=O)NCc2ccc(Cl)cc2)nn1	inactive: 52%
CC(=O)c1cccc(NC(=O)CC(c2ccc(C)cc2)N2Cc3ccccc3C2=O)c1 (configuration not stated)	inactive: 78%
CC(C)CNC(=O)N1[C@H](c2cccs2)[C@@H](C)C(=O)[C@@H](C)[C@@H]1c1cccs1	inactive: 54%
COc1ccc(-c2cc(C(F)(F)F)n3nc(C(=O)NCCN4CCOCC4)c(Br)c3n2)cc1	inactive: 107%
Cc1cccc(OCC(=O)Nc2ccc(-c3nc4ccccc4o3)cc2)c1C	active: 52%
CCn1nnnc1SCC(=O)c1ccc(C)cc1C	inactive: 84%
COc1ccc(C)cc1NS(=O)(=O)c1c(C(=O)N2CCCCCC2)c(C)n(C)c1C	inactive: 82%
CC(C)OCCCNC(=O)Cn1ccc2cc(S(=O)(=O)N3CCCCCC3)ccc21	inactive: 122%
CC(C)Nc1nc(NC(C)C)nc(C(N)=O)n1	inactive: 110%
CC(=O)NC1(c2ccccc2)CCN(Cc2nnnn2C(C)(C)C)CC1	inactive: 91%
CCN(CC)C(=O)CSc1nc2ccccc2cc1C	inactive: 87%
Cc1cc(C)n(-c2nc3ccccc3nc2Nc2ccc(Cl)c(C(=O)OC(C)C)c2)n1	inactive: 99%
CCc1cccc2c(C#N)cn(CC(=O)N(CC)CC)c12	inactive: 88%
COCCCNC(=O)c1ccc(-n2c(-c3ccccc3)cc3c2CCCC3)cc1	inactive: 70%
O=C(OCc1cc(=O)n2nc(C3CCCCC3)sc2n1)c1ccccc1Cl	inactive: 83%
COc1cccc(-c2nnc(SCC(=O)N3CCC(C)CC3)o2)c1	inactive: 54%
CCN1CC=C2C(C#N)=C(N)C(C#N)(C#N)C(C)C2C1 (configuration not stated)	inactive: 80%
Cc1cc(C)cc(NS(=O)(=O)c2ccc3[nH]cc(C(=O)NC4CCCCC4)c(=O)c3c2)c1	active: 17%
CCn1cc(S(=O)(=O)c2ccccc2)c(=O)c2cc(F)c(N3CCCC3)cc21	inactive: 107%
